The full ranking holds about 110,000 compounds; the median of “z-score” is about -0.1, and the highest 2% start at about 2. Some of the results follow.
What follows are molecules tested against Metabotropic glutamate receptor 8 (Rattus norvegicus) (UniProt P70579) (assay: mGluR8 Gi/Go-coupled signaling modulation – cell-based, rat, thallium flux, HTS, primary screen (AID 488969)). Details: HEK293 rat mGluR8, GIRK (G protein-gated inwardly rectifying potassium channel) thallium flux, FluoZin2; at 10 µM; stronger effect = higher value.
Sequence of UniProt P70579 (P70579 whole entry, looked up): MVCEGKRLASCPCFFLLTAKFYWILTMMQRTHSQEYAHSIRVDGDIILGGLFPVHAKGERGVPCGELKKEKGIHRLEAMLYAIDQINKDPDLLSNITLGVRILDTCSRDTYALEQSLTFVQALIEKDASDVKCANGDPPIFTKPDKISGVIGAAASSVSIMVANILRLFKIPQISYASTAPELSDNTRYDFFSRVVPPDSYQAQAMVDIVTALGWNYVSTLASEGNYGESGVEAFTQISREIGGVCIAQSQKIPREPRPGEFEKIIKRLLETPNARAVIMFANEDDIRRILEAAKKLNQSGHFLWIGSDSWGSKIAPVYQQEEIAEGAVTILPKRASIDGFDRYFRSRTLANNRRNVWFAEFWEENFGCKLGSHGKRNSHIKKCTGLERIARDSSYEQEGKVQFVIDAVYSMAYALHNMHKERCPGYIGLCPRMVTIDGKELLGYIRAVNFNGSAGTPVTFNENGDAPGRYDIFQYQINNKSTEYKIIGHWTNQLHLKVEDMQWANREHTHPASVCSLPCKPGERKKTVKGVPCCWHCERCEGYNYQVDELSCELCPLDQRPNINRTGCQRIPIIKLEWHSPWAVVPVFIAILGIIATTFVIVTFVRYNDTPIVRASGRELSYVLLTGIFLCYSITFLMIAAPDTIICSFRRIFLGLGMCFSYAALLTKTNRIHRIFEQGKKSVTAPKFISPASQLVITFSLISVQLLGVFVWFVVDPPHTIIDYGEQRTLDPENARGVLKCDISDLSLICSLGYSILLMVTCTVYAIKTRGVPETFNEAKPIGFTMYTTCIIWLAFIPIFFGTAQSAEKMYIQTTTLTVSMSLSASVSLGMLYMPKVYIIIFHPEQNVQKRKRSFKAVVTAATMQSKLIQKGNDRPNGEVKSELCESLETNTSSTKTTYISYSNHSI

| Compound | z-score |
| --- | --- |
| Cc1nc2sccc2c(=O)n1-c1ccccc1Cl | 0.0438 |
| CC(=O)Nc1ccc2c(c1)CC1(C(=O)N(C)C(=O)N(C)C1=O)C1CCCN21 (stereo not drawn) | 0.535 |
| CC1CCN(S(=O)(=O)c2ccc(NN=C(C#N)C#N)cc2)CC1 | -1.69 |
| OC1(CN2CCOCC2)C2CC3CC(C2)CC1C3 (stereo not drawn) | 0.047 |
| CSC(=Nc1ccccc1)c1c(O)n(C)c(=O)n(C)c1=O | -0.0557 |
| CN(C)C(Cc1ccccc1)C(=O)c1ccccc1 (stereo not drawn) | -0.28 |
| Cn1c(=O)cc(OCCCC(=O)N2CCC3(CC2)OCCO3)c2ccccc21 | -0.0413 |
| COc1cccc(CN2CCCCC2c2cccnc2)c1 (stereo not drawn) | -0.0952 |
| CCC(=NCCc1ccccc1)c1c(O)n(C2CCCCC2)c(=O)[nH]c1=O | -0.591 |
| O=C(Nc1ccccc1OC(=O)N1CCOCC1)N1CCOCC1 | -0.295 |
| CCNc1ccc(P(=S)(N(C)C)N(C)C)cc1 | -0.436 |
| CCN(CC)CCCOC(=O)C(OC(C)C)(c1ccccc1)c1ccccc1 | 1.71 |
| COc1ccc(/C=C2\C(=O)NC(=O)N(CCC3=CCCCC3)C2=O)c(OC)c1 | -0.377 |
| COc1ccc(OC(=O)N(C)C)c(CN(C)C)c1 | -0.00221 |
| C=CCn1c(O)c(C(CC)=NCCCO)c(=O)[nH]c1=O | 0.978 |
| CCN(CC)CCOC(=O)c1cc2cc(COC)ccc2o1 | 0.771 |
| COc1ccc(CN2CC3CC(C2)c2cccc(=O)n2C3)cc1OC (stereo not drawn) | 1.04 |
| CCOc1ccccc1N1C(=O)NC(=O)C(CCc2ccncc2)(CCc2ccncc2)C1=O | 0.0697 |
| COc1cccc(Oc2c(C)oc3cc(OC(=O)N(C)C)ccc3c2=O)c1 | -0.3 |
| COC(=O)C(O)(c1ccc(N(C)C(=O)OC(C)C)cc1)C(F)(F)F (stereo not drawn) | 0.305 |
| c1ccc(CN2CCN(Cc3ccc4c(c3)OCCO4)CC2)cc1 | -0.577 |
| COc1ccc(CCn2c(O)c(C=NCCN3CCCCC3)c(=O)[nH]c2=O)cc1OC | -0.303 |
| CCC12CN3CCN(CC(C3)C1O)C2 (stereo not drawn) | -0.345 |
| CCOC(=O)C(O)(c1ccc(N(CC)C(=O)COc2ccccc2)cc1)C(F)(F)F (stereo not drawn) | -0.213 |
| COc1ccc(C(=O)N2CCOCC2)cc1S(=O)(=O)N1CCC(C)CC1 | 0.244 |

| Compound | z-score |
| --- | --- |
| CNC(=O)N(C)c1nnc(C(C)(C)C)s1 | 0.546 |
| CC(C)COc1ccc(C2(C#N)CC[N+](C)(C)CC2)cc1 | 0.581 |
| O=C(c1ccccc1F)c1cn(CC(=O)N2CCCC2)c2ccccc12 | -0.289 |
| Cc1cc(C)nc(/N=C(\N)c2c(O)[nH]c(=O)[nH]c2=O)n1 | -0.192 |
| CN(C)C1(CNC(=O)c2ccc(Cl)c(S(=O)(=O)NCc3ccco3)c2)CCCCC1 | 0.144 |
| CCc1c(C)nc(N)nc1N1N=C1SCC#N | 8.12e-05 |
| NC(=O)Nc1cccc(C(F)(F)F)c1 | -0.308 |
| O=C1CC(N2CCC(n3c(=O)[nH]c4ccccc43)CC2)C(=O)N1Cc1ccccc1 (stereo not drawn) | -0.57 |
| c1ccc(C2N3CCCN23)cc1 (stereo not drawn) | 0.201 |
| CC(C)C/C(=N/O)c1c[nH]c2ccccc12 | -0.0354 |
| Oc1ccc(C2NCc3ccccc3-n3cccc32)cc1Cl (stereo not drawn) | 1.68 |
| Cc1ccc2c(c1)C1CN(C)CCC1N2S(=O)(=O)c1ccccc1 (stereo not drawn) | -1.68 |
| O=C(N/N=C1/CN2CCC1CC2)c1cccc(O)c1 | -0.00337 |
| COCc1c(CN)cnc(C)c1N | -0.0285 |
| O=C(CN1CC=C(c2ccccc2)CC1)NC(=O)NCc1ccco1 | -0.0787 |
| O=P(C(c1ccc2c(c1)OCO2)N1CCOCC1)(N1CCOCC1)N1CCOCC1 (stereo not drawn) | -0.49 |
| CCCCn1c(O)c(C(C)=NCCN2CCOCC2)c(=O)[nH]c1=O | 0.119 |
| CCOC(=O)C(O)(c1ccc(NC(=S)NC(=O)c2ccc(Cl)cc2Cl)c(C)c1)C(F)(F)F (stereo not drawn) | 1.21 |
| CN(C)CCN=Cc1c(O)n(Cc2ccco2)c(=O)[nH]c1=O | 0.184 |
| CNC(=S)NC1CC2CCCC(C1)N2CC(C)C (stereo not drawn) | -0.0397 |
| Clc1ccccc1CNC1CN2CCC1CC2 (stereo not drawn) | 0.156 |
| CCC(C)N=Cc1c(O)n(-c2ccccc2)c(=O)[nH]c1=O (stereo not drawn) | -0.117 |
| COc1cc(C(=O)Nc2ccc(Br)cc2C(=O)c2ccccc2Cl)cc(OC)c1OC | -0.615 |
| CN(C)C(=O)Oc1ccc2ccccc2c1Cl | -0.252 |
| CCN(CC)C(=O)c1ccc(NC(=O)c2cc(-n3cnnc3)ccc2Cl)cc1 | 0.701 |

| Compound | z-score |
| --- | --- |
| CCC(C)n1c(O)c(/C=N/Nc2ccccc2)c(=O)[nH]c1=S (stereo not drawn) | -0.315 |
| O=C1CN(C(=O)CN2CCCCC2)C(c2ccccc2)c2cc(Br)ccc2N1 (stereo not drawn) | -0.45 |
| O=P(Nc1ccccc1Cl)(c1ccccc1)c1nc2c(s1)CCCC2 (stereo not drawn) | 0.115 |
| Cn1c(O)c(C=NCCCC(=O)O)c(=O)n(C)c1=O | -1.02 |
| COc1ccc(/C=C2\C(=N\O)C3CCN2CC3)cc1 | -0.214 |
| C=CCN1C(=O)c2ccccc2Sc2ccc(C(=O)N3CCC4(CC3)OCCO4)cc21 | -0.666 |
| CC(=O)N1CC(=O)Nc2ccc(Cl)cc2C1c1ccc(F)cc1 (stereo not drawn) | -0.284 |
| O=C1NC(=O)N(c2ccc(F)cc2)C(=O)/C1=C/c1ccc2c(c1)CCCN2Cc1ccccc1 | -0.195 |
| CCC(C)C1(CC)C(=O)NC(=O)N=C1N (stereo not drawn) | -0.0437 |
| Cc1nn(C2CCOC(C)(C)C2)c2c1C(c1ccc3c(c1)OCO3)SCC(=O)N2 (stereo not drawn) | -0.591 |
| CC(=NCCN1CCOCC1)c1c(O)n(-c2ccccc2C)c(=O)[nH]c1=O | 0.506 |
| COC(=O)CSC1=NP(=S)(SCC(=O)OC)N2CCCC2=C1C#N (stereo not drawn) | 0.603 |
| CN1CCN(c2ccc(C(N)=O)cc2N)CC1 | -0.803 |
| COC(=O)CN1C(=O)C2(C(C(=O)OC)=C(N)Oc3ccccc32)C2=C1CC(C)(C)CC2=O (stereo not drawn) | 0.262 |
| CCCCc1nc(N2CCNCC2)c(C#N)c2c1CSC(C)(C)C2 | 2.01 |
| CC(C)Sc1nnc([C@@H](N)Cc2c[nH]c3ccccc23)o1 | 0.315 |
| COc1ccccc1CN1CCCCC1c1cccnc1 (stereo not drawn) | -0.195 |
| Cc1cccc(N2C(=O)NC(=O)/C(=C\c3cc(C)n(-c4sc5c(c4C#N)CCCC5)c3C)C2=O)c1C | 0.0132 |
| COc1ccccc1CCNCc1cc2c(cc1[N+](=O)[O-])OCO2 | -0.956 |
| Cc1ccc(C2=NC(C)(C)N3C2C3c2ccc([N+](=O)[O-])cc2)cc1 (stereo not drawn) | 0.597 |
| CN1CN=C(N[N+](=O)[O-])N(Cc2ccco2)C1 | -0.203 |
| c1ccc2c(CCNCc3ccc4c(c3)OCO4)c[nH]c2c1 | 2.19 |
| CN1C(=O)C(=Cc2ccc(N3CCOCC3)o2)C(=O)N(C)C1=O | -0.283 |
